Among the data in the RNAGym collection of RNA variant scans (doi:10.1093/nar/gkz1192) are self-cleavage values, retold here.

B1: CPEB3 Ribozyme (parent)
chain: UAACAGGGGGCCACAGCAGAAGCGUUCACGUCGCAGCCCCUGUCAGAUUCUGGUGAAUCUGCGAAUUCUGCUGUAUAUCUC

Read counts are not given, so values of variants with three or more changes are uncertain.

Variants of B1 are the subject of the data set. As to the kind of experiment: self-cleavage, relative activity (ratio to wild type); higher = more cleavage; in vitro, sequencing. In a few lines:
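Relative activity compares each variant's cleaved/total read fraction with that of the unmutated ribozyme. To get these fractions, barcoded CPEB3 ribozyme libraries from rounds of error-prone PCR were transcribed with T7 RNA polymerase for 5 hours at 37°C and then given 15 min of DNase I treatment before EDTA was added. The RNAs were reverse transcribed with template switching and sequenced on Illumina, and DNA sequencing linked barcodes to variants. A minimum of 5 reads applied, and three batches were averaged.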
As for G9U A28G G42A A57G U69A, the self-cleavage came out at 0.1.

On to G9A U69A U72C A75G, for which the self-cleavage amounted to 0.11.

In the case of G9A C12U A35G U67C, the self-cleavage is 0.08.

For G9U A21G G30A U41C A65U U72G, the self-cleavage came to 0.03.

Consider G9C C34A C40A U41C, for which the self-cleavage came to 0.04.

On to G9A G19A U26A U67A G73A, for which the self-cleavage is 0.05.

Regarding G9A U26A A45G C59G, the self-cleavage turned out to be 0.05.

For G9C A13G A45C U51C U78C, the self-cleavage was 0.01.

For the variant G9U A21G U48C C59A A65G, the self-cleavage amounted to 0.1.

Turning to G9A A18C U43A U80C, the self-cleavage was 0.09.

For G9U A35C G36A U80C, the self-cleavage was determined as 0.14.

As for G9A A18G U41A G61C A64G U69C, the self-cleavage was determined as 0.05.

Consider G9A U25A U41C U43C C44U A47G, for which the self-cleavage came out at 0.06.

In the case of G9A U54C A64U, the self-cleavage was found to be 0.11.

Regarding G9U A28U A45U, the self-cleavage came to 0.12.

With G9A C29A A57G A65G C71G U80C, the self-cleavage was determined as 0.03.

Turning to G9A U25C U60G U72C, the self-cleavage is 0.3.

Consider G9U A35U A57G U69C, for which the self-cleavage amounted to 0.05.

As for G9A U25C U69C U78G, the self-cleavage is 0.12.

On to G9A C11U G24C A35G U51C U78C, for which the self-cleavage was 0.04.

With G9A A20G U43C A57G U69A, the self-cleavage is 0.16.

In the case of G9A U26A U51C, the self-cleavage stood at 0.23.

On to G9U A21G U49C U51C U54C A65U U78C, for which the self-cleavage is 0.07.

Consider G9A G10U U69C G70U U80C, for which the self-cleavage came to 0.23.

In the case of G9A A20U G22U U26C, the self-cleavage came out at 0.23.

As to G9U A21U G22U A45C C59U, the self-cleavage amounted to 0.15.

In the case of G9A A18C U66C, the self-cleavage was 0.22.

Turning to G9A U26C G30A A47G A57G U58A A77G, the self-cleavage is 0.04.

On to G9U A45G A56U A77G, for which the self-cleavage was 0.22.

Take G9A U31G U74C: the self-cleavage was found to be 0.08.

Take G9A C40U A45G U60A: the self-cleavage is 0.06.

As for G9U A20G U31C U74C, the self-cleavage worked out at 0.28.

On to G9A A15U U80C, for which the self-cleavage was determined as 0.31.

Turning to G9C A15G A21G U25C C34U, the self-cleavage was 0.05.

Regarding G9A G16A U41A U49C A56G U66C U67C, the self-cleavage worked out at 0.04.

As to G9A C23U U60C, the self-cleavage amounted to 0.14.

G9C U26C U41C G46U A56G: the self-cleavage stood at 0.07.

Consider G9A A18G G19U A35U C71U, for which the self-cleavage came out at 0.09.

In the case of G9C A20U A28G U54C U72A, the self-cleavage stood at 0.11.

As for G9A A28G U43C U51A U74C, the self-cleavage is 0.08.

With G9U A13G A15G U49C U72C, the self-cleavage is 0.3.

Regarding G9A G30U G42A U80C, the self-cleavage was 0.19.

Regarding G9A A15U U74C U80C, the self-cleavage was 0.07.

G9C A21U U43A U72A A77G: the self-cleavage worked out at 0.18.

G9C A13G A15G A35U A45C U51A: the self-cleavage was 0.02.

For the variant G9U A13G U49A A75G, the self-cleavage worked out at 0.05.

As to G9U A20G U26C U51C U67C, the self-cleavage worked out at 0.12.

Consider G9C U25A U66C, for which the self-cleavage worked out at 0.05.

Turning to G9A U49C U58A A65G, the self-cleavage was found to be 0.12.

In the case of G9A U48A U60C C79U, the self-cleavage turned out to be 0.03.

On to G9A U41A A45U U66C, for which the self-cleavage came out at 0.04.

In the case of G9C A28G A56G, the self-cleavage is 0.4.

G9A A56G A64U U72A U78A: the self-cleavage turned out to be 0.06.

In the case of G9A U25C A45U U78C C81U, the self-cleavage worked out at 0.05.

For G9A A18G A20U A45U A56U A64G C79U, the self-cleavage is 0.11.

For the variant G9A A35G A45U U49C U69C, the self-cleavage was determined as 0.06.

Consider G9A A57G A65U C71A A75G U76C, for which the self-cleavage was 0.04.

For G9A C62U U67A, the self-cleavage was 0.1.

For the variant G9A A18G A57G U66C, the self-cleavage was found to be 0.1.

For G9U A28U U43A A47G U51G G53A U76C, the self-cleavage was found to be 0.09.

Regarding G9A U69C U72C, the self-cleavage was 0.08.

In the case of G9A A45G U60A, the self-cleavage came out at 0.14.

G9C G10U U67C: the self-cleavage came to 0.15.

For the variant G9A U76C U78A, the self-cleavage is 0.42.

Regarding G9U A18G A35G U80C, the self-cleavage came to 0.31.

Regarding G9A U25C C32G U41C A57G U72A U80A, the self-cleavage came out at 0.03.

Take G9U A18U U25C A64U: the self-cleavage amounted to 0.04.

As for G9A A47U A64U, the self-cleavage is 0.33.

Take G9U A18G U48C U49G U51A U60G U66C: the self-cleavage was 0.02.

As for G9A G55A U72A, the self-cleavage turned out to be 0.07.

As for G9A A28G U67A U72A U76C A77G, the self-cleavage came out at 0.03.

Consider G9U A28G U49G, for which the self-cleavage was determined as 0.05.

Consider G9U A21C G30U U43C U51A, for which the self-cleavage was 0.1.

Regarding G9A A15U A20U U25C A65U U69C, the self-cleavage is 0.04.

For G9A A28G U43C, the self-cleavage is 0.19.

Turning to G9A A20G C27U C29U A35G U43C A57G, the self-cleavage was 0.04.

In the case of G9A A15G U26C U41C, the self-cleavage was found to be 0.34.

As to G9C A21G U25A A45U A47U G53C, the self-cleavage was determined as 0.05.

As for G9A A35U U41C U80C, the self-cleavage stood at 0.36.

In the case of G9A A20G U25A U72C, the self-cleavage was found to be 0.22.

For the variant G9U A21G A47G G53A U60C, the self-cleavage came out at 0.05.

For the variant G9A A18G U31A A45G A57G U66C, the self-cleavage is 0.21.

As to G9A U25A A35U U58C, the self-cleavage was 0.04.

As for G9A C23U A35G A45G U54C U58C G70A, the self-cleavage was 0.15.
